Results taken from the supplement of paper PMC4967469.
A lower IC50 marks a more sensitive line; a fit beyond the top or the lowest dose is shown as a bound at that dose. AUC sums up the same curve from the lowest dose to the 256-fold higher top dose: 1 means no effect, lower means more sensitive. For part of these data: Any top dose called inferred was calculated from the reported fits. For part of these data: An entry number marks a drug with two screens in the source, which often give different values.

Columns and labels:
Experiment in all cases: Viability of human cancer cell lines after 72 h of drug (GDSC screen)
GSK690693 = compound: CCn1c(-c2nonc2N)nc2c(C#CC(C)(C)O)ncc(OC[C@H]3CCCNC3)c21 [GSK690693]; conditions: top dose 10.24 µM; top dose inferred
Procedure: (§1)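 Human cancer cell lines in 384-well plates, medium with 10% serum, drug for 72 h over a 256-fold dose range (nine 2-fold or five 4-fold steps up to the top dose). Adherent lines were fixed and stained with the nucleic acid dye Syto60, suspension lines read with resazurin; signal relative to control wells, capped at 0 and 100%. One two-parameter sigmoid per drug and line, fitted in a mixed model over all curves with the slope shared within a line.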

UNC0638 = compound: COc1cc2c(NC3CCN(C(C)C)CC3)nc(C3CCCCC3)nc2cc1OCCCN1CCCC1 [UNC0638]
Procedure: as §1

SB-505124 = compound: Cc1cccc(-c2[nH]c(C(C)(C)C)nc2-c2ccc3c(c2)OCO3)n1 [SB-505124]; conditions: top dose 10 µM; top dose inferred
Procedure: as §1

PI-103 = compound: Oc1cccc(-c2nc(N3CCOCC3)c3oc4ncccc4c3n2)c1 [PI-103]; conditions: top dose 10.24 µM
Procedure: as §1

BX-795 = compound: O=C(NCCCNc1nc(Nc2cccc(NC(=O)N3CCCC3)c2)ncc1I)c1cccs1 [BX-795]; conditions: top dose 5 µM; top dose inferred
Procedure: as §1

[1] = top dose 20 µM, screen: GDSC drug entry 1236, top dose inferred
[2] = top dose 40 µM, screen: GDSC drug entry 245

Row | Cell Line | AUC (GSK690693) | IC50 (GSK690693) [µM] | AUC (UNC0638; [1]) | IC50 (UNC0638; [1]) [µM] | AUC (UNC0638; [2]) | IC50 (UNC0638; [2]) [µM] | AUC (SB-505124) | IC50 (SB-505124) [µM] | AUC (PI-103) | IC50 (PI-103) [µM] | AUC (BX-795) | IC50 (BX-795) [µM]
1 | 769-P (kidney, adherent) | 0.957 | > 10.2 | 0.794 | 10.2 | 0.766 | 16.1 | 0.944 | > 10 | 0.461 | 0.497 | – | –
2 | A204 (rhabdomyosarcoma, adherent) | 0.883 | > 10.2 | 0.75 | 8.24 | 0.704 | 11.3 | 0.944 | > 10 | 0.411 | 0.34 | – | –
3 | A549 (lung adenocarcinoma, adherent) | – | – | 0.973 | > 20 | – | – | 0.957 | > 10 | – | – | 0.744 | 1.74
4 | BEN (non-small cell lung carcinoma, adherent) | 0.986 | > 10.2 | 0.952 | > 20 | 0.813 | 25.5 | 0.982 | > 10 | 0.559 | 0.952 | – | –
5 | BFTC-909 (kidney, adherent) | 0.988 | > 10.2 | 0.938 | > 20 | 0.875 | 37.7 | 0.947 | > 10 | 0.9 | > 10.2 | – | –
6 | CAMA-1 (breast, adherent) | 0.839 | 9.71 | 0.982 | > 20 | 0.909 | > 40 | 0.98 | > 10 | 0.634 | 1.65 | – | –
7 | COLO-792 (melanoma, adherent) | 0.948 | > 10.2 | 0.827 | 12 | 0.954 | > 40 | 0.957 | > 10 | 0.387 | 0.315 | – | –
8 | COR-L105 (lung adenocarcinoma, adherent) | 0.93 | > 10.2 | 0.907 | > 20 | 0.701 | 10.5 | 0.973 | > 10 | 0.823 | 7.9 | – | –
9 | GCT (soft tissue, adherent) | 0.989 | > 10.2 | 0.719 | 4.95 | 0.936 | > 40 | 0.988 | > 10 | 0.988 | > 10.2 | – | –
10 | GP5d (large intestine, adherent) | 0.946 | > 10.2 | 0.99 | > 20 | 0.851 | 25.9 | 0.99 | > 10 | 0.966 | > 10.2 | – | –
11 | H2803 (mesothelioma, adherent) | 0.985 | > 10.2 | 0.872 | > 20 | 0.872 | > 40 | 0.983 | > 10 | 0.981 | > 10.2 | – | –
12 | H2804 (mesothelioma, adherent) | 0.977 | > 10.2 | 0.836 | 15.1 | 0.793 | 20.3 | 0.984 | > 10 | 0.932 | > 10.2 | – | –
13 | H2818 (mesothelioma, adherent) | 0.982 | > 10.2 | 0.975 | > 20 | 0.891 | > 40 | 0.986 | > 10 | 0.98 | > 10.2 | – | –
